The whole screen tested about 48,000 compounds, of which about 1,200 (2.5%) were called active. Not shown: some 2% with an inconclusive outcome.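 Rule for the calls: active = activation of at least 60% and not above a set upper limit (about 1 call in 100 departs from these limits); inconclusive = activation of 40% to 60%, or above that upper limit; inactive = activation under 40%.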 The list shows a part of the results.

UniProt O75388, sequence (O75388 whole entry, looked up, the tested form may be a part): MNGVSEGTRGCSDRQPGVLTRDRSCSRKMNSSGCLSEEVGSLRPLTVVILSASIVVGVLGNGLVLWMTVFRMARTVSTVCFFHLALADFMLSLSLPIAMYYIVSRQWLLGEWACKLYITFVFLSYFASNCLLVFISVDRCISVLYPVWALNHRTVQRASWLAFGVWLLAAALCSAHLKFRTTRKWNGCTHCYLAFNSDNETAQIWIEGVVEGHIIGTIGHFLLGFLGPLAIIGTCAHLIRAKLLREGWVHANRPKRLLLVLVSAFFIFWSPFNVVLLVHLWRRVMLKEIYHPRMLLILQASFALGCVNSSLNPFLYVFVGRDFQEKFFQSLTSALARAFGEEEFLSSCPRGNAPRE

The target in the assay is Probable G-protein coupled receptor 32 (Homo sapiens) (UniProt O75388). The assay can be described thus: qHTS for Agonists of Human Resolvin D1 Receptor DRV1. Note: 0% is about no effect. The following applies: CHO-K1 GPR32 beta-arrestin PathHunter luminescence, 90 min; at 76.9 µM; active compounds read high; zero percent set by DMSO-only wells. The method, boiled down:
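Agonism was scored as beta-arrestin recruitment to ProLink-fused GPR32 in stably transfected CHO-K1 cells, giving a chemiluminescent beta-Gal signal; compounds were incubated 90 min at 37 °C.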
In general terms: In qHTS, concentration-response curves come from the screen itself.
As to `CCSc1ncc(Cl)c(C(=O)Nc2ccc(S(=O)(=O)N(C)c3ccccc3)cc2)n1`, the activation is inactive: -6.78%.
To `Cc1cc(Nc2cccc(Cl)c2)nc2ccc(NC(=O)c3cccnc3)cc12` belongs active: 60.5%; to `O=C(CN1C(=O)COc2ccc(S(=O)(=O)N3CCCCCC3)cc21)NCc1ccc(F)cc1`, inactive: -23.3%.
In the case of `Cc1ccc(NC(=O)CSc2nc3n[nH]c(C)c3c(=N)n2-c2cccc(C)c2)cc1`, the activation was inactive: 4.83%.
Take `Cc1ccc(NC(=O)C(=O)NCC2(c3ccccc3)CCCC2)cc1Cl`: the activation is inactive: -24.7%.
For `CCc1ccc(CNC(=O)CN2CCSc3ccccc32)cc1`, the activation is inactive: -11.5%.
For `CCOC(=O)N1CCc2c(sc3c2c(=O)n(CCc2ccccc2)c(=O)n3Cc2c(F)cccc2Cl)C1`, the activation is inactive: -7.88%.
Turning to `O=C(NCCc1ccccc1)c1cnn(-c2ccc(F)cc2)c1-n1cccc1`, the activation was inactive: 19.1%.
To `CCOc1ccc(NC(=O)c2cnc(N3CCCCC3)c3ccccc23)cc1` belongs inactive: -24.5%.
Then `CCCOc1c(Cl)cc(C(=O)N(Cc2cccc(OC)c2)C2CCS(=O)(=O)C2)cc1Cl` (configuration not stated), with inactive: -31.4%; and `CC(C)NC(=O)C1CCC(Cn2c(=O)c3sccc3n(CC(=O)NCc3ccccc3)c2=O)CC1` (configuration not stated), with inactive: 2.75%; and `COc1ccc(NC(=O)Cn2cnc3c(oc4ccccc43)c2=O)cc1OC`, with inactive: -0.798%.
As to `O=C(NCc1ccc2c(c1)OCO2)c1ccc2c(c1)N(Cc1ccccc1)C(=O)c1ccccc1S2=O` (configuration not stated), the activation was inactive: 3.42%.
Then `CCOC(=O)c1c(-c2ccccc2)csc1NC(=O)c1cc(-c2ccc(F)cc2)on1`, with inactive: 24%.
For `CN(c1ccccc1)S(=O)(=O)c1nnc(NC(=O)c2ccccc2)s1`, the activation is inactive: 7.68%.
As for `CC(C)n1cnc(S(=O)(=O)N2CCCC(C(=O)NCc3ccccc3Cl)C2)c1` (configuration not stated), the activation is inactive: -29.6%.
For the compound `COC(=O)Cn1c(=O)c2cccn2c2cccnc21`, the activation is inactive: -14.3%.
Consider `CCOc1ccc(C(=O)c2c(N)c(-c3nc(-c4ccc5c(c4)OCO5)cs3)c3ccccn23)cc1`, for which the activation was inactive: 4.68%.
Consider `Cc1cc(C(=O)Nc2ccc(C(C)C)cc2)c2c(C)nn(-c3ccccc3)c2n1`, for which the activation is inactive: -4.25%.
For the compound `Cc1ccsc1CN(C(=O)c1oc2cc(Br)ccc2c1C)C1CCS(=O)(=O)C1` (configuration not stated), the activation was inactive: -30.5%.
As to `COc1cccc(CNC(=O)CSc2c3c(nc4cc(Cl)ccc24)CCCC3)c1`, the activation is inactive: -19%.
As for `CN(C)CCCN(C(=O)c1ccc2c(c1)OCCO2)c1nc2ccccc2s1`, the activation is inactive: -7.7%.
Turning to `Cc1cccc2c(=O)cc(CSc3ccccc3NC(=O)c3cccc(F)c3)[nH]c12`, the activation is inactive: 13.5%.
To `COc1ccccc1CNc1ccc(-c2nc(-c3ccco3)no2)cc1[N+](=O)[O-]` belongs inactive: 29%.
To `CCOc1ccccc1NC(=O)Cn1cc(C(=O)c2ccc(Cl)cc2)c(=O)c2ccc(C)nc21` belongs inactive: 4.65%; to `COc1ccc(Cn2c(=O)c3oc4ccccc4c3n(Cc3cccc(C)c3)c2=O)cc1`, inactive: -20.3%; to `O=C(NCc1ccccc1Cl)NCc1noc2ccccc12`, inactive: 0.54%.
Regarding `CSc1ccc(CNC(=O)c2ccc(NC(=O)c3nsc4ccccc34)cc2)cc1`, the activation was inactive: -18.2%.
`COC(=O)Cn1c(=O)c2c(nc3n2CCN3c2ccc(F)cc2)n(C)c1=O`: the activation was inactive: -6.37%.
To `COc1cccc(-n2c(SCC(=O)c3ccc(Cl)cc3)nc3c([nH]c4ccccc43)c2=O)c1` belongs inactive: 10.1%; to `Cc1ccc(N2C(=O)[C@@H]3CSC(c4ccc(F)cc4)N3C2=O)cc1` (some centres not stated), inactive: 3.17%; to `COc1ccc(Cl)cc1NC(=O)Cn1c(=O)n(CCC(=O)NCc2ccc3c(c2)OCO3)c(=O)c2ccccc21`, inactive: -8.12%.
On to `CCOc1ccccc1C(=O)Nc1nc2c(s1)CC(C)CC2` (configuration not stated), for which the activation is inactive: 5.41%.
In the case of `Cc1ccc(CNS(=O)(=O)c2ccc(-c3cc(C(F)(F)F)on3)s2)cc1`, the activation is inactive: -3.78%.
On to `Nc1c(C(=O)Nc2ccccc2)nnn1Cc1ccc(F)cc1Cl`, for which the activation was inactive: -20.7%.
Then `Cc1ccccc1NC(=O)Cn1c(=O)n(CC2CCC(C(=O)NCCc3ccccc3)CC2)c(=O)c2ccccc21` (configuration not stated), with inactive: 0.136%; and `Cc1ccc(C(=O)Nc2cc3c(cc2N2CCCC2)n(C)c(=O)c(=O)n3C)cc1`, with inactive: -12.2%; and `COc1cc(NC(=O)COCc2cc(-c3ccc(F)cc3)on2)cc(OC)c1OC`, with inactive: 40.9%.
Turning to `O=C(Nc1ccc(Cl)c(-c2nc3cc(Cl)ccc3o2)c1)c1cc([N+](=O)[O-])ccc1N1CCOCC1`, the activation is inactive: -2.83%.
Then `Cc1nn(C(C)(C)C)c(OC(=O)C(C)(C)C)c1Sc1ccccc1`, with inactive: 49%.
Regarding `CCCOc1ccc(Oc2nc(NCC(C)C)nc(N3CCOCC3)n2)nn1`, the activation was inactive: -10.7%.
Turning to `O=C(O)CCn1cnc2onc(-c3cc(F)cc(F)c3)c2c1=O`, the activation was inactive: 20.3%.
Take `CC(=O)Nc1ccc(NC(=O)Cn2nc(C(=O)Nc3ccc(C)cc3)ccc2=O)cc1`: the activation is inactive: -5.71%.
Take `CCOc1ccc(-c2cc3c(=O)n(CC(=O)NCc4ccc(Cl)cc4)ccn3n2)cc1`: the activation is inactive: 11.6%.
Take `Cn1cc(C(=O)N2CCN(c3cccc(C(F)(F)F)c3)CC2)c2c3ccccc3n(C)c2c1=O`: the activation is active: 118%.
To `CC(C)(C)NC(=O)[C@H]1CC[C@H]2[C@@H]3CC[C@H]4NC(=O)C=C[C@]4(C)[C@H]3CC[C@]12C` belongs inactive: -18.7%; to `COc1ccccc1N1CCN(c2nc(-c3ccc(C)cc3)nc3ccccc23)CC1`, inactive: -20.9%; to `COc1cccc(NC(=O)C2CCCN(S(=O)(=O)c3ccc4[nH]c(=O)ccc4c3)C2)c1` (configuration not stated), inactive: -11.2%.
For `CCOc1ccc(NC(=O)CN(c2ccc(Cl)cc2C)S(=O)(=O)c2ccccc2)cc1`, the activation was inactive: -13.1%.
As to `COc1ccc(N2CC(NC(=O)c3ccc4c(c3)OCO4)CC2=O)cc1` (configuration not stated), the activation is inactive: -7.78%.
Then `COc1ccc(NC(=O)CN(c2ccc(C)cc2)S(=O)(=O)c2cccc3nonc23)cc1OC`, with inactive: -39.1%; and `CCOc1ccc(OCC)c(NS(=O)(=O)c2c(C(=O)N3CCC(C)CC3)c(C)n(C)c2C)c1`, with inactive: -16.1%.

(Values after PubChem BioAssay AID1346428 (National Center for Advancing Translational Sciences (NCATS), 2018).)
